Experimental data as given in the supplement of paper PMC8728848.
Some of the results follow.

Columns and labels:
Assay in all cases: glycan array binding signal (z-score within array); higher = stronger binding
Conditions in all cases: glycan notation: IUPAC condensed, linker removed
[1] = target: Neu5Ac(a2-3)Gal(b1-4)GlcNAc(b1-3)Gal(b1-4)GlcNAc(b1-3)Gal(b1-4)GlcNAc
Outline: (§1)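 Arrays were curated from the Consortium for Functional Glycomics database, 3228 in total, and kept only where the protein sequence was available. Binding is expressed as a within-array Z-score. This score was averaged across arrays of the same protein sequence at different concentrations or buffers and across linkers, and negative values can be read as non-binding.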

[2] = target: Neu5Ac(a2-3)Gal(b1-4)GlcNAc(b1-3)Gal(b1-4)GlcNAc(b1-3)Gal(b1-4)GlcNAc(b1-2)Man(a1-3)[Neu5Ac(a2-3)Gal(b1-4)GlcNAc(b1-3)Gal(b1-4)GlcNAc(b1-3)Gal(b1-4)GlcNAc(b1-2)Man(a1-6)]GalNAc
Outline: as §1

[3] = target: Neu5Ac(a2-3)Gal(b1-4)GlcNAc(b1-3)Gal(b1-4)GlcNAc(b1-3)GalNAc
Outline: as §1

[4] = target: Neu5Ac(a2-3)Gal(b1-4)GlcNAc(b1-3)Gal(b1-4)GlcNAc(b1-3)[Neu5Ac(a2-3)Gal(b1-4)GlcNAc(b1-3)Gal(b1-4)GlcNAc(b1-6)]GalNAc
Outline: as §1

[5] = target: Neu5Ac(a2-3)Gal(b1-4)GlcNAc(b1-3)Gal(b1-4)GlcNAc(b1-6)[Gal(b1-3)]GalNAc
Outline: as §1

[6] = target: Neu5Ac(a2-3)Gal(b1-4)GlcNAc(b1-3)Gal(b1-4)[Fuc(a1-3)]GlcNAc
Outline: as §1

[7] = target: Neu5Ac(a2-3)Gal(b1-4)GlcNAc(b1-3)GalNAc
Outline: as §1

[8] = target: Neu5Ac(a2-3)Gal(b1-4)GlcNAc(b1-3)[Neu5Ac(a2-3)Gal(b1-4)GlcNAc(b1-6)]GalNAc
Outline: as §1

[9] = target: Neu5Ac(a2-3)Gal(b1-4)GlcNAc(b1-6)GalNAc
Outline: as §1

[10] = target: Neu5Ac(a2-3)Gal(b1-4)GlcNAc(b1-6)[Gal(b1-3)]GalNAc
Outline: as §1

[11] = target: Neu5Ac(a2-3)Gal(b1-4)GlcNAc(b1-6)[Neu5Ac(a2-3)Gal(b1-3)]GalNAc
Outline: as §1

[12] = target: Neu5Ac(a2-3)Gal(b1-4)GlcNAc6S
Outline: as §1

[13] = target: Neu5Ac(a2-3)Gal(b1-4)[Fuc(a1-3)]GlcNAc
Outline: as §1

[14] = target: Neu5Ac(a2-3)Gal(b1-4)[Fuc(a1-3)]GlcNAc(b1-2)Man
Outline: as §1

[15] = target: Neu5Ac(a2-3)Gal(b1-4)[Fuc(a1-3)]GlcNAc(b1-3)Gal
Outline: as §1

[16] = target: Neu5Ac(a2-3)Gal(b1-4)[Fuc(a1-3)]GlcNAc(b1-3)Gal(b1-4)GlcNAc
Outline: as §1

[17] = target: Neu5Ac(a2-3)Gal(b1-4)[Fuc(a1-3)]GlcNAc(b1-3)Gal(b1-4)[Fuc(a1-3)]GlcNAc(b1-3)Gal(b1-4)[Fuc(a1-3)]GlcNAc
Outline: as §1

[18] = target: Neu5Ac(a2-3)Gal(b1-4)[Fuc(a1-3)]GlcNAc(b1-3)GalNAc
Outline: as §1

[19] = target: Neu5Ac(a2-3)Gal(b1-4)[Fuc(a1-3)]GlcNAc(b1-6)[Gal(b1-3)]GalNAc
Outline: as §1

[20] = target: Neu5Ac(a2-3)Gal(b1-4)[Fuc(a1-3)]GlcNAc(b1-6)[Neu5Ac(a2-3)Gal(b1-3)]GalNAc
Outline: as §1

[21] = target: Neu5Ac(a2-3)Gal(b1-4)[Fuc(a1-3)]GlcNAc6S
Outline: as §1

[22] = target: Neu5Ac(a2-3)Gal6S(b1-4)GlcNAc
Outline: as §1

[23] = target: Neu5Ac(a2-3)Gal6S(b1-4)[Fuc(a1-3)]GlcNAc
Outline: as §1

Neu5Ac(a2-3)GalNAc = target: Neu5Ac(a2-3)GalNAc
Outline: as §1

[24] = target: Neu5Ac(a2-3)GalNAc(b1-4)GlcNAc
Outline: as §1

[25] = target: Neu5Ac(a2-3)[GalNAc(b1-4)]Gal(b1-4)Glc
Outline: as §1

[26] = target: Neu5Ac(a2-3)[GalNAc(b1-4)]Gal(b1-4)GlcNAc
Outline: as §1

[27] = target: Neu5Ac(a2-3)[GalNAc(b1-4)]Gal(b1-4)GlcNAc(b1-3)GalNAc
Outline: as §1

[28] = target: Neu5Ac(a2-3)[Neu5Ac(a2-6)]GalNAc
Outline: as §1

Neu5Ac(a2-6)Gal = target: Neu5Ac(a2-6)Gal
Outline: as §1

[29] = target: Neu5Ac(a2-6)Gal(b1-3)GlcNAc(b1-3)[Gal(b1-4)GlcNAc(b1-6)]Gal(b1-4)Glc
Outline: as §1

Neu5Ac(a2-6)Gal(b1-4)Glc = target: Neu5Ac(a2-6)Gal(b1-4)Glc
Outline: as §1

[30] = target: Neu5Ac(a2-6)Gal(b1-4)GlcNAc
Outline: as §1

[31] = target: Neu5Ac(a2-6)Gal(b1-4)GlcNAc(b1-2)Man
Outline: as §1

[32] = target: Neu5Ac(a2-6)Gal(b1-4)GlcNAc(b1-2)Man(a1-3)Man(b1-4)GlcNAc(b1-4)GlcNAc
Outline: as §1

[33] = target: Neu5Ac(a2-6)Gal(b1-4)GlcNAc(b1-2)Man(a1-3)[Gal(b1-4)GlcNAc(b1-2)Man(a1-6)]Man(b1-4)GlcNAc(b1-4)GlcNAc
Outline: as §1

[34] = target: Neu5Ac(a2-6)Gal(b1-4)GlcNAc(b1-2)Man(a1-3)[GlcNAc(b1-2)Man(a1-6)]Man(b1-4)GlcNAc(b1-4)GlcNAc
Outline: as §1

[35] = target: Neu5Ac(a2-6)Gal(b1-4)GlcNAc(b1-2)Man(a1-3)[GlcNAc(b1-4)][Neu5Ac(a2-6)Gal(b1-4)GlcNAc(b1-2)Man(a1-6)]Man(b1-4)GlcNAc(b1-4)GlcNAc
Outline: as §1

B1: PX14367B-bvu-516-23-516 (Bacteroides vulgatus) (protein)
chain: LDTIPTTYVDAGSVFGKTGDAEKVLNGGWNYLMETFNSYANPGYGAMLRANDAMGSDVVLNSKYGFRTHNEFSAIYGKGGTNTLSWLLAYRVINDCNGVLDNIDAAEGTQADRNRIKGQALALRGFLYLHLASCYSFAIDKDPDAVCAPIYTQSTDETIAAEGKPASSVSEVYAQSINDLEEALELIPETYVRDAKHKIDNEVVLGILSRACLYARQWEKAKTYSDKLLAKDNYLMTESEYKAGFNSVDNKEWIWGHAQTNDQSNASYQFHYLDTTTKGSYYYSFNVDPYFRDLFEDGDYRKEMLFWATDPGADVESAAYVWMRNSKFRFRDIENQLGDIVLMRVAEIYLINAEAKAHLNDPDAINKLNDLKTARGAKTIHTNLSQQDLLETIWLERRKELWGEGFSLIDIIRNQQTVVRNAYPEGPIDYIYTDENGQTHTLKKKTQGHRFFNFPDKSAFCPNSKYYLYRITDSEELANKNLYKDHPKLSIYTK
Question: With B1 as the binder, how does the “glycan array binding signal (z-score)” value [1] read?
Answer: -0.354

Question: And the “glycan array binding signal (z-score)” value [2]?
Answer: -0.07

Question: And the “glycan array binding signal (z-score)” value [3]?
Answer: -0.343

Question: And the “glycan array binding signal (z-score)” value [4]?
Answer: -0.296

Question: What about the “glycan array binding signal (z-score)” value [5] of the same binder?
Answer: -0.3

Question: What about the “glycan array binding signal (z-score)” value [6] of the same binder?
Answer: -0.347

Question: What about the “glycan array binding signal (z-score)” value [7] of the same binder?
Answer: -0.298

Question: What about the “glycan array binding signal (z-score)” value [8] of the same binder?
Answer: -0.326

Question: What about the “glycan array binding signal (z-score)” value [9] of the same binder?
Answer: -0.227

Question: And the “glycan array binding signal (z-score)” value [10]?
Answer: -0.123

Question: What about the “glycan array binding signal (z-score)” value [11] of the same binder?
Answer: -0.354

Question: And the “glycan array binding signal (z-score)” value [12]?
Answer: -0.075

Question: And the “glycan array binding signal (z-score)” value [13]?
Answer: -0.289

Question: What about the “glycan array binding signal (z-score)” value [14] of the same binder?
Answer: -0.317

Question: What about the “glycan array binding signal (z-score)” value [15] of the same binder?
Answer: -0.388

Question: And the “glycan array binding signal (z-score)” value [16]?
Answer: -0.019

Question: And the “glycan array binding signal (z-score)” value [17]?
Answer: -0.281

Question: And the “glycan array binding signal (z-score)” value [18]?
Answer: 0.014

Question: And the “glycan array binding signal (z-score)” value [19]?
Answer: 1.17

Question: And the “glycan array binding signal (z-score)” value [20]?
Answer: 0.034

Question: What about the “glycan array binding signal (z-score)” value [21] of the same binder?
Answer: -0.354

Question: What about the “glycan array binding signal (z-score)” value [22] of the same binder?
Answer: -0.101

Question: And the “glycan array binding signal (z-score)” value [23]?
Answer: -0.307

Question: And the “glycan array binding signal (z-score)” value (Neu5Ac(a2-3)GalNAc)?
Answer: -0.319

Question: What about the “glycan array binding signal (z-score)” value [24] of the same binder?
Answer: -0.341

Question: What about the “glycan array binding signal (z-score)” value [25] of the same binder?
Answer: 0.265

Question: What about the “glycan array binding signal (z-score)” value [26] of the same binder?
Answer: -0.356

Question: What about the “glycan array binding signal (z-score)” value [27] of the same binder?
Answer: -0.226

Question: What about the “glycan array binding signal (z-score)” value [28] of the same binder?
Answer: -0.309

Question: What about the “glycan array binding signal (z-score)” value (Neu5Ac(a2-6)Gal) of the same binder?
Answer: 0.065

Question: What about the “glycan array binding signal (z-score)” value [29] of the same binder?
Answer: -0.335

Question: What about the “glycan array binding signal (z-score)” value (Neu5Ac(a2-6)Gal(b1-4)Glc) of the same binder?
Answer: -0.068

Question: What about the “glycan array binding signal (z-score)” value [30] of the same binder?
Answer: -0.274

Question: What about the “glycan array binding signal (z-score)” value [31] of the same binder?
Answer: -0.355

Question: What about the “glycan array binding signal (z-score)” value [32] of the same binder?
Answer: -0.286

Question: And the “glycan array binding signal (z-score)” value [33]?
Answer: -0.151

Question: And the “glycan array binding signal (z-score)” value [34]?
Answer: 0.838

Question: What about the “glycan array binding signal (z-score)” value [35] of the same binder?
Answer: -0.072
